# Reference: PubChem BioAssay (NCATS)
# The shares of active, inactive and inconclusive entries below differ from those in the screen. No potency is given beside an inconclusive call; the fits are too rough. Calls of active or inactive are those of the source. Calls come from the whole dose curve; as a rule, active = well fitted inhibition curve with a large enough effect; inconclusive = small, poorly fitted or top-dose-only effect; inactive = no such curve, though single readings can be large or run the other way. Numbered stars: 1 amine (or outer) side, 2 acyl side, 3 side chain; on linkers, the order of the positions; unused ones are H or OH. Bridge positions count the residues as written; N and C are the ends. Square brackets hold non-standard residues; d marks the D form. Peptide text beside a SMILES is read from it. * marks the point of attachment. ξ: configuration not given here. X10 = NC1=NCCC(C(N[*:1])C(=O)[*:2])N1; ΔAla(3-NHCONH2) = NC(=O)NC=C(N)C(=O)O; ξβ3hOrn = NCCCC(N)CC(=O)*; Dap = NC[CH](N)C(=O)O
# Assay: qHTS assay for measurement of the activity of small molecule inhibitors on Zika virus induced Caspase-3 activity in human iPSC derived neural progenitor cells (hNPCs) (AID 1224857); note: nearly all actives have a fitted effect of over 65% in size; for activity change, negative = inhibition: % of control where 0% means no effect
# Details: hNPCs ZIKV-induced caspase-3/7, Caspase-Glo luminescence, 6 h; series mostly up to 45.7 µM; activity change, negative = inhibition: at the top concentration
# How it was run: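 Human iPSC-derived neural progenitor cells pretreated 1 hr with compounds, then infected with Zika virus (2 FFU/cell) for 6 hours at 37 C. Caspase-3/7 measured by Caspase-Glo luminescence; % inhibition calculated from induction scaled to uninfected (0%) and infected (100%) wells.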
# Potency is the fitted concentration of half-maximal effect; tags give direction and shape of the fitted curve.
SMILES,Potency,"activity change, negative = inhibition"
CCOC1OC(=O)C[C@H]1NC(=O)[C@@H]1CCCN1C(=O)[C@@H](NC(=O)c1ccc(N)c(Cl)c1)C(C)(C)C (stereo not given in full),"inconclusive [inhibitor, partial curve, poor fit]",–
Cn1cc(C2=C(c3ccc(Cl)cc3Cl)C(=O)NC2=O)c2ccccc21,"inconclusive [inhibitor, single point]",–
CC(C)Cc1ccc([C@H](C)C(=O)O)cc1,"inconclusive [inhibitor, single point]",–
CN(C)c1ccc2cc(C(=O)N[C@@H](CCCN=C(N)CCl)C(=O)NCc3ccccc3)ccc2c1,active: 20.9 µM,–
CCC(C)SSc1ncc[nH]1 (stereo not given),active: 26.4 µM,–
NCCCC(N)CC(=O)NCC1NC(=O)C(CO)NC(=O)C(N)CNC(=O)C(C2CCN=C(N)N2)NC(=O)C(=CNC(N)=O)NC1=O (stereo not drawn) (H-[Dap]S[Dap](ξβ3hOrn)[ΔAla(3-NHCONH2)][X10]; lactam 1-C; configuration not given here),–,inactive: 2.09% [at 0.568 µM]
O=C(O)CCC(=O)c1ccc(-c2ccccc2)cc1,"inconclusive [inhibitor, partial curve, poor fit]",–
Nc1cc(-c2ccncc2)c[nH]c1=O,"inconclusive [inhibitor, partial curve, poor fit]",–
O=C(CCN1CCN(C(=O)OCc2cc(Cl)cc(Cl)c2)CC1)c1ccc2[nH]c(=O)oc2c1,active: 20.9 µM,–
CCCn1cnc2c1c(=O)n(CCCCC(C)=O)c(=O)n2C,"inconclusive [inhibitor, full curve, poor fit]",–
Nc1nccc(Oc2ccc(NC(=O)c3c[nH]cc(-c4ccc(F)cc4)c3=O)cc2F)c1Cl,–,inactive: 1.21%
C=CCCCCCCCCC(=O)O,"inconclusive [inhibitor, partial curve, poor fit]",–
COc1cc(C(O)CO)ccc1OS(=O)(=O)O (stereo not given),"inconclusive [inhibitor, single point]",–
OC[C@H]1O[C@H](O[C@]2(CCl)O[C@H](CCl)[C@@H](O)[C@@H]2O)[C@H](O)[C@@H](O)[C@H]1Cl,–,inactive: -1.08%
Cc1csc(NC(=O)c2sc3nc4c(c(C(F)(F)F)c3c2N)CCC4)n1,active: 23.5 µM,–
COc1ccnc2c1CCCCC2S(=O)c1nc2ccccc2[nH]1 (stereo not given),"inconclusive [inhibitor, single point]",–
CN1CCc2cccc3c2C1Cc1ccc(O)c(O)c1-3 (stereo not given),"inconclusive [inhibitor, single point]",–
CC(O)(P(=O)(O)O)P(=O)(O)O,–,inactive: 8.7%
C=CC(N)CCC(=O)O (stereo not given),"inconclusive [inhibitor, single point]",–
Nc1ccccc1NC(=O)c1ccc(CNC(=O)OCc2cccnc2)cc1,–,inactive: 10.2%
COc1cc(C(=S)N2CCOCC2)ccc1O,–,inactive: -10.7%
CO[C@H]1C=CC=C(C)C(=O)NC2=CC(=O)C(NCCN(C)C)=C(C[C@@H](C)C[C@H](OC)[C@@H](O)[C@@H](C)C=C(C)[C@@H]1OC(N)=O)C2=O,"inconclusive [inhibitor, single point]",–
O=C(O)c1ccccc1Nc1cccc(C(F)(F)F)c1,"inconclusive [inhibitor, partial curve, poor fit]",–
CCN1/C(=C/C=C/c2sc3ccccc3[n+]2CC)Sc2ccccc21,active: 3.16 µM,–
CNCC[C@H](Oc1ccc(C(F)(F)F)cc1)c1ccccc1,"inconclusive [inhibitor, partial curve, poor fit]",–
